# Over roughly 33,000 sequences, “E-score (-0.5 to 0.5)” has its median near -0.043; the highest 2% begin near 0.37. Some of the results follow.
# Target: T1, Upc2 (UniProt Q12151)
# T1 sequence: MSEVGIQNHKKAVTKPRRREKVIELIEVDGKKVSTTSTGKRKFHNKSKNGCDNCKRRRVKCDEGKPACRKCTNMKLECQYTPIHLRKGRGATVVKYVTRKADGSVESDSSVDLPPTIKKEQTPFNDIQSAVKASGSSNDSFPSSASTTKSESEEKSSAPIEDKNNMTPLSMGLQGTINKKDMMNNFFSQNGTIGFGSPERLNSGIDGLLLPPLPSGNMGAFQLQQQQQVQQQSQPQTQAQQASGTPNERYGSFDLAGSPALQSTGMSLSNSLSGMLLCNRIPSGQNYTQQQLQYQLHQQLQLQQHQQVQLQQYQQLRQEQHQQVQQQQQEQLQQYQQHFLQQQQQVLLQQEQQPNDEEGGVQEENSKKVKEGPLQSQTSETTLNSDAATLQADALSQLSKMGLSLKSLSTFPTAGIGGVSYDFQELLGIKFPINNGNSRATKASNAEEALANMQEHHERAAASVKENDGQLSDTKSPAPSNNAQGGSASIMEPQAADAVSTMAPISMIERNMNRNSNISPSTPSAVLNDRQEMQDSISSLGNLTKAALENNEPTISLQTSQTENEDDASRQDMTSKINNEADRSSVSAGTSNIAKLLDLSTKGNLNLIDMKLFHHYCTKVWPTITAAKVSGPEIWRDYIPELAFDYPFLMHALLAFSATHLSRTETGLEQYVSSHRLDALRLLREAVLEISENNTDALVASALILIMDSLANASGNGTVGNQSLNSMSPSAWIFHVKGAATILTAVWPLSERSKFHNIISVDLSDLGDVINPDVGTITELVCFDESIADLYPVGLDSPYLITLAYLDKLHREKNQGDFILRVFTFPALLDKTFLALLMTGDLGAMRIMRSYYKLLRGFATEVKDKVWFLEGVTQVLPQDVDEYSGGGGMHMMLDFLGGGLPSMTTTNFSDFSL
# Assay: PBM E-score (8-mer binding enrichment) (E-score (-0.5 to 0.5)); higher = stronger / more preferred TF binding; most listed sequences are background and not binding sites
# Settings: protein concentration: 200 nM; construct: GST-full length
# Description: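 Universal 'all 10-mer' protein binding microarrays (Agilent AMADID 015681) probed with GST-tagged S. cerevisiae TFs (full-length or DBD) made by in vitro transcription/translation (PURExpress), about 100-200 nM. Bound TF was detected with fluorescent anti-GST. Each ungapped 8-mer (which stands for itself and its reverse complement) is scored by the PBM enrichment score (E-score), a modified Wilcoxon-Mann-Whitney statistic from -0.5 to +0.5, computed with the Universal PBM Analysis Suite. Scale: above 0.35 generally sequence-specific binding.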
row,Sequence,PBM E-score
1,CGAGTGAC,0.22
2,GGGAGACA,-0.188
3,AATGTGCC,-0.154
4,GCGTTACC,-0.0432
5,CCGCGAGC,0.00566
6,GTGTCGCA,0.0927
7,TAAGGTAA,0.0415
8,GCTGCAGC,-0.125
9,GCGGATTA,0.0243
10,CGGGTTAC,0.209
11,ACTTTGCT,-0.0435
12,CTTCAGGC,-0.201
13,GAGGTGTA,-0.128
14,CAAGGGTG,-0.226
15,GGAACGAA,0.464
16,ACCCCTTA,-0.155
17,GTGTAAGA,0.0639
18,CTAGAGAG,-0.236
19,CTACCGTC,-0.208
20,AACGGATC,0.143
21,CGATTAGC,0.257
22,ATCATTCA,0.0286
23,CGCTAGAG,0.00564
24,CTGCGCGA,-0.0988
25,ATATGTGG,-0.146

row,Sequence,PBM E-score
1,AGACAACT,-0.179
2,GCTTCGAA,0.0704
3,CGTCATAC,0.249
4,GAGAGAGA,-0.0966
5,GCCTTTAA,-0.0667
6,AATTCGGC,-0.242
7,GCCGACGA,-0.0599
8,ACGTAGAC,0.0773
9,CGATTCGC,0.131
10,ACAGTAGC,-0.0133
11,GATTGCAA,0.00183
12,AGATGCGC,0.0333
13,ACTATAAC,-0.121
14,CGAACTAC,0.0988
15,CTGAGAGC,-0.15
16,AGAGGTCC,-0.131
17,AAATCTTA,0.0972
18,CTTTCGTC,-0.043
19,CTGACATA,-0.151
20,ACTATTCG,0.251
21,CGGCACTA,-0.142
22,CCGCATAA,0.121
23,CCAAGAAG,-0.227
24,AGGACACT,-0.364
25,ACCGAGCC,0.2

row,Sequence,PBM E-score
1,TACTAGGA,-0.232
2,CCAATCGG,-0.174
3,CTCATCCA,-0.255
4,TTGGGAAA,0.0564
5,ATCTTACA,0.0167
6,CCCGGTAG,-0.0851
7,AGAAAAGC,0.0148
8,GACGAGAA,0.0864
9,GGCGCACA,-0.261
10,CGTAAAGC,0.403
11,TAATATCA,-0.137
12,GGGACGAC,-0.244
13,AGCGACGA,0.185
14,TACCATAA,-0.014
15,TACAATAA,-0.0294
16,GTGCCACA,-0.285
17,ATGTTGCA,0.0701
18,AAAGGTCA,-0.169
19,GGGTAGCA,-0.132
20,TCACCAGA,-0.157
21,CCCCGCTA,0.0753
22,GGTCGTTA,0.358
23,AGAGACCG,-0.0277
24,GCCCAATA,-0.0227
25,ATTGTCAC,-0.051

row,Sequence,PBM E-score
1,CCTAACCA,-0.0454
2,CTTGGAGC,-0.154
3,GCACCTCC,-0.269
4,CATGGAGC,-0.272
5,GCCGTATA,0.48
6,CATCCGAA,0.134
7,CGGCCGTC,-0.0655
8,CACTGCCC,-0.2
9,AGGCGGCG,0.0757
10,AAAGCGGA,-0.0717
11,ACCCCCGG,-0.192
12,GGAACACA,-0.0493
13,AAGAGCGC,-0.016
14,CGTTAAAA,0.364
15,ACTATCCC,-0.22
16,CGGGTAAG,0.112
17,GAGCGGCC,-0.106
18,ACAAGCGA,0.257
19,CCTGATAC,0.107
20,CAGTGTTC,-0.0765
21,AAATCTGT,-0.0429
22,AAAATAGT,-0.122
23,ATCTCGTC,0.123
24,CCACTGCG,-0.156
25,AGCCCAAG,-0.323

row,Sequence,PBM E-score
1,AAAGCGGT,-0.0185
2,ATGTTCGC,0.14
3,GATCTCTA,-0.0508
4,CCTTCGAC,-0.259
5,ACTTAACG,0.339
6,CACGCTGC,-0.122
7,CAAGAGGC,-0.278
8,AGGTCCAC,-0.151
9,ACACCTAG,-0.177
10,CGGCACGA,0.0717
11,CACCTATG,-0.0273
12,ACCTGTCA,-0.19
13,GCGTGCTA,-0.112
14,ATAGATGG,-0.18
15,CTGCTCTA,-0.0369
16,CATGTTCC,-0.133
17,GCTGCCTA,-0.0208
18,ACGGGTGC,0.133
19,AAATCTAC,-0.00285
20,CAATTATA,0.0724
21,CGCCTTTA,0.0401
22,CGGTAGTA,-0.0437
23,CCAGTCTA,-0.0148
24,GCTTGTGA,-0.246
25,AGTACTCC,0.0974

row,Sequence,PBM E-score
1,CGTCAGCA,-0.032
2,ACACGGGC,-0.0605
3,AATTTTCT,0.0525
4,AACAGTCT,-0.0247
5,GATCTAAC,0.0222
6,AATATATG,0.0125
7,CCCGCCAC,-0.047
8,AAAGGGCG,-0.1
9,TACGCCAA,0.223
10,CTTCGTCA,-0.0302
11,CGATACAC,0.0822
12,CGCCGAGA,-0.0496
13,ATAAATCC,-0.0278
14,CCCGATTC,-0.0726
15,AACAAAGT,0.0536
16,ATTTGAAC,0.0892
17,ACACTGAC,-0.0488
18,ACGAAGAC,0.26
19,CGCTCTGA,-0.0693
20,CCCCGGTC,-0.246
21,ACCGTTCG,0.22
22,CATCAGCA,-0.331
23,CGTGGCTA,-0.21
24,GATCCATC,0.0451
25,CATTGGGA,-0.0951

row,Sequence,PBM E-score
1,AATCAATA,0.0785
2,TGCCCCCA,-0.118
3,CCAGTTGC,-0.193
4,ATCATTAA,0.179
5,ACAGCGAA,0.0868
6,TGAGAGCA,-0.207
7,CCCCTCCG,0.0172
8,AACCAATA,-0.0564
9,AAGTGTTG,0.0948
10,AACGAACC,0.427
11,TACAGTCA,0.137
12,AACACACC,-0.00316
13,ATATTGCC,-0.0476
14,ACAAAGTA,0.21
15,AGTACATC,-0.0485
16,AGGCGCCC,-0.253
17,CGACAGTA,0.109
18,AGTAATAC,0.0139
19,AAAGTAAC,-0.0192
20,ACCTCTAG,-0.145
21,AGTGAATA,-0.102
22,GGCGCAAC,0.00488
